# Measurements taken from PubChem BioAssay AID485294 (National Center for Advancing Translational Sciences (NCATS), 2010).
# Among all 370,000 compounds or so, about 150 (0.041%) were called active. This list was built around the results that the source calls inconclusive (neither active nor inactive); the mix of calls is not that of the screen. Calls come from the whole dose curve; as a rule, active = well fitted inhibition curve with a large enough effect; inconclusive = small, poorly fitted or top-dose-only effect; inactive = flat fitted curve, though single readings scatter. No potency is given beside an inconclusive call; the fits are too rough.
# Molecular target: Beta-lactamase (Escherichia coli (strain K12)) (UniProt P00811)
# Chain of UniProt P00811 (P00811 whole entry, looked up): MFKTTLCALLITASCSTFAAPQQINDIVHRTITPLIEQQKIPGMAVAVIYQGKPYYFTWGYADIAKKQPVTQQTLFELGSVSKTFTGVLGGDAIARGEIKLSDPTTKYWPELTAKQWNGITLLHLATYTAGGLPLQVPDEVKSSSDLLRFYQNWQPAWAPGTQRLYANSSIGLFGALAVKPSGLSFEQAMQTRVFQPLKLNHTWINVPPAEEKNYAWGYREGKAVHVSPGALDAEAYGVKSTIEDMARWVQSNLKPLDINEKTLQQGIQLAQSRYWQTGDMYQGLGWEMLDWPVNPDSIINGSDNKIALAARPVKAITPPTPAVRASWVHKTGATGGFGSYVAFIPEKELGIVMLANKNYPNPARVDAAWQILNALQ
# Test: qHTS Inhibitors of AmpC Beta-Lactamase (assay with detergent); note: nearly all actives have a fitted effect of over 25% in size
# Conditions: AmpC hydrolysis of nitrocefin, absorbance 480 nm, 0.01% Triton; series mostly up to 114 µM
# How it was run: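 AmpC (5.3 nM in the dispensed reagent) in 20 mM phosphate pH 7.0 with 0.01% (detergent screen) or 0.0001% Triton X-100 was preincubated with compounds for 15 min at room temperature. Nitrocefin was then added from an 800 uM solution, and hydrolysis was followed at 480 nm.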
# Potency is the fitted concentration of half-maximal effect; tags give direction and shape of the fitted curve.
row,Compound,Potency
1,Cc1ccc(C)c(C(=O)COc2ncnc3ccccc23)c1,inactive
2,Cc1ccc(NCc2nnc(SCC(=O)N3c4ccccc4Sc4ccccc43)o2)c(C)c1,"inconclusive [inhibitor, partial curve, poor fit]"
3,COc1ccccc1Nc1nnc(SCC(=O)c2cc(C)n(CC3CCCO3)c2C)s1 (stereo not drawn),"inconclusive [inhibitor, partial curve]"
4,CCOc1ccccc1NC1c2ccccc2C(=O)N1Cc1ccco1 (stereo not drawn),"inconclusive [inhibitor, partial curve]"
5,CCc1ccc(CNC(=O)C2Cc3cc(S(=O)(=O)N4CCCCCC4)ccc3N2C(C)=O)cc1 (stereo not drawn),inactive
6,CCOc1ccc(CNc2nc3nc(C)c(Cc4ccccc4)c(=O)n3[nH]2)cc1,inactive
7,C=CCn1cccc(C(=O)Nc2ccc(OC)cc2)c1=O,inactive
8,CCOc1ccc(CNC(=O)CCCn2nc(CC)n3c(cc4occc43)c2=O)cc1,inactive
9,O=C(C[n+]1cccc(NC(=O)c2ccccc2)c1)c1cccc([N+](=O)[O-])c1,inactive
10,CCCn1nnnc1NC(=O)c1cc(Cl)ccc1Cl,"inconclusive [inhibitor, partial curve]"
11,Fc1ccc(N/N=C2/CC(c3ccccc3)Oc3ccccc32)c(F)c1 (stereo not drawn),"inconclusive [inhibitor, full curve, poor fit]"
12,Cn1c(CCC(=O)OCC(=O)NCC(F)(F)F)nc(=O)c2ccccc21,"inconclusive [inhibitor, single point]"
13,Cc1ccccc1NC(=O)C1C2CCCC1C2c1ccccc1 (stereo not drawn),"inconclusive [inhibitor, full curve]"
14,CC(C)Oc1ccc(C2CC(=O)N(c3ccccc3)C2=O)cc1 (stereo not drawn),inactive
15,O=C(NCCn1ccc2ccccc21)c1ccc2c(c1)OCO2,"inconclusive [inhibitor, full curve]"
16,COc1ccc(Nc2nc(N/N=C/c3ccc(N(C)C)cc3)nc(C)c2[N+](=O)[O-])cc1,"inconclusive [inhibitor, full curve, poor fit]"
17,COC(=O)c1cccc(N(C(=O)c2cnccn2)C(C(=O)NCc2ccccc2)c2ccco2)c1 (stereo not drawn),"inconclusive [inhibitor, partial curve, poor fit]"
18,O=C1CCC([N+](=O)[O-])C(c2ccc(Cl)cc2Cl)N1 (stereo not drawn),"inconclusive [inhibitor, full curve]"
19,Cc1cccc(NC(=O)C2CCC(CNS(=O)(=O)c3csc(C(N)=O)c3)CC2)c1C (stereo not drawn),inactive
20,COc1cccc(-n2c(SCC(=O)N3CCOCC3)nnc2-c2c[nH]c3ccccc23)c1,inactive
21,COc1cccc(C(=O)OCC(=O)c2c[nH]c3ccccc23)c1OC,"inconclusive [inhibitor, partial curve, poor fit]"
22,Cc1ccc(S(=O)(=O)c2nc(S(C)(=O)=O)sc2N(C)Cc2ccccc2)cc1,inactive
23,CC(C)(C)c1ccc(OCC(=O)Nc2ccc(S(=O)(=O)Nc3ncccn3)cc2)cc1,inactive
24,O=C(O)c1ccc(Cl)c(S(=O)(=O)NCC2CCCO2)c1 (stereo not drawn),"inconclusive [inhibitor, single point]"

row,Compound,Potency
1,Cc1nc2c(c(C)c1CCC(=O)NCc1ccccc1)c(=O)n(C)c(=O)n2C,inactive
2,O=S1(=O)OCCC(c2ccccc2)N1Cc1ccccc1 (stereo not drawn),"inconclusive [inhibitor, full curve, poor fit]"
3,COc1cc(/C=C(\C#N)c2ccccn2)ccc1OCc1ccc(Cl)cc1,inactive
4,CC(C)(C)N=C1NC(=NC(C)(C)C)c2ccccc21,inactive
5,NC(=O)c1nc(Nc2ccccc2)sc1NC(=O)c1ccccc1Br,inactive
6,CCCSc1nnc2nc3c(nn12)c1ccccc1n3C,"inconclusive [inhibitor, full curve]"
7,COc1ccc2c(c1)Sc1ccccc1N2CCN(C)C,"inconclusive [inhibitor, partial curve]"
8,Cc1ccc(C)c(S(=O)(=O)N2CCN(CC(=O)Nc3ccc([N+](=O)[O-])cc3)CC2)c1,"inconclusive [inhibitor, full curve]"
9,CS(=O)(=O)N(C(=O)NC(=O)NC1CCS(=O)(=O)C1)C1CCCCC1 (stereo not drawn),"inconclusive [inhibitor, single point]"
10,CCOC(=O)N1CCC(=NNS(=O)(=O)c2cccc([N+](=O)[O-])c2)CC1,inactive
11,N#Cc1ccccc1,inactive
12,COc1ccc(OC)c(-c2csc(NC(=O)C3c4ccccc4Oc4ccccc43)n2)c1,"inconclusive [inhibitor, full curve, poor fit]"
13,CC(C)(C)C1CCc2onc(C(=O)Nc3cccnc3)c2C1 (stereo not drawn),"inconclusive [inhibitor, full curve, poor fit]"
14,CCC(=O)N1CCc2cc(Br)cc(S(=O)(=O)CCC(=O)N3CCN(c4ccccc4F)CC3)c21,inactive
15,Cc1cccc(NC(=O)Nc2cc(C)cc(C)n2)c1,inactive
16,Cc1ccc(C(=O)NCc2ccc3c(c2)OCO3)cc1Cl,inactive
17,Cc1ccc(C(=O)N2CCN(c3ccc(NC(=O)c4ccc(Br)o4)cc3)CC2)cc1,inactive
18,O=C(Nc1ncc(Cc2ccc(C(F)(F)F)cc2)s1)c1ccc(-c2cccc([N+](=O)[O-])c2)o1,inactive
19,COc1ccc(S(=O)(=O)NCc2cccnc2)cc1C(=O)NC1CCCCC1,inactive
20,OC(CN1CCN(Cc2ccccc2)CC1)c1ccc(F)cc1 (stereo not drawn),inactive
21,O=C(NC1CCCCC1)C(c1ccc(F)cc1)N(Cc1ccco1)C(=O)Cn1nnc2ccccc21 (stereo not drawn),inactive
22,O=C(CSc1ccc2nnc(-c3ccccn3)n2n1)NCc1ccc2c(c1)OCO2,"inconclusive [inhibitor, full curve, poor fit]"
23,COc1cccc(CN(C)C(=O)C(Cc2ccccc2)NC(=O)c2ccccc2)c1OC (stereo not drawn),"inconclusive [inhibitor, full curve, poor fit]"
24,C=CCNC(=O)c1onc(CS(=O)(=O)c2cc(C)cc(C)c2)c1C(=O)NCC=C,"inconclusive [inhibitor, full curve]"
